Laboratory results published in ChEMBL document CHEMBL4888484, “Replenishing the malaria drug discovery pipeline: Screening and hit evaluation of the MMV Hit Generation Library 1 (HGL1) against asexual blood stage Plasmodium falciparum ,using a nano luciferase reporter read-out” (2022).
Hit rate of the full screen: of about 150,000 compounds, about 540 (0.36%) showed an effect of 50% or more. The list shows a part of the results.

These compounds were tested on Plasmodium falciparum (assay: Primary screen in NF54 nanoGlo assay, in single point, at 2uM, 72h; a lower Z score goes with more inhibition). Settings: timepoint 72 hour.
Type: functional, Erythrocyte

Structure (SMILES)	% Inhibition [%]	Z score
CC(C)(C)OC(=O)N1CCC(CC(=O)N2CCOC3CCCCC32)CC1 (stereo not given)	7	-0.88
CCOc1ccc(-n2nc(CO)c(C(=O)NC3CC3)n2)cc1	-9	1.62
COc1ccc(Cl)c(N2CCN(C(=O)[C@H]3CCCN(C(N)=O)C3)CC2)c1	-3	0.43
Cc1ccc(-c2cccc(CN3CCC(CCC(=O)NC[C@H]4CCCO4)CC3)c2)o1	8	-1.1
Cc1csc(CN(C)Cc2sc(N(C)C)nc2C)n1	-5	0.58
O=C(c1cccs1)N1CCN(Cc2noc3ccccc23)CC1	-15	1.73
CC(CCN1CCOCC12CCOC2)c1ccccc1 (stereo not given)	8	-1.48
CC(C)Cc1nnc(NC(=O)NC2C3CCOC3C23CCC3)s1 (stereo not given)	-2	0.31
Cc1cc(C(=O)N2CCO[C@H](c3ccccc3)C2)c(C)o1	-3	0.4
O=C(COc1ccc2c(c1)OCO2)NCCCn1ncccc1=O	-19	3.69
CCN1CCN(C(=O)CC2CCN(c3ncnc4c3ncn4C)CC2)CC1	5	-0.87
COc1cc2c(cc1OC)[C@@H](NC(=O)c1cc(C(C)C)[nH]n1)CC2	-9	1.21
O=C(NCCCN1CCOCC1)c1ccc2c(c1)NC(=O)[C@@H]1CCCCN21	-11	1.62
COc1ccc(OCC(=O)/N=C(\N)Nc2nc3ccccc3o2)cc1	0	0.03
COc1ccc(-c2nc(Cn3cnc4ccccc4c3=O)no2)c(OC)c1	-9	1.05
Cc1nccc(N2CCOC[C@@H]2CC(C)C)n1	-11	1.57
O=C(NS(=O)(=O)CC1CC1)c1cccc(F)c1Cl	-5	0.61
C=CCC[C@@H](CN1CCC(C(=O)O)CC1)Oc1ccc(Cl)cn1	-4	0.74
COc1cccc(CNS(=O)(=O)c2c(C)[nH]c(C)c2-c2nc(C)no2)c1	-4	0.72
COc1ccc(C(=O)NCCc2ccc(S(N)(=O)=O)cc2)nn1	0	-0.03
CN(C)c1cc(C(=O)N[C@H](c2ccccc2)c2cc3ccccc3o2)ccn1	-5	0.72
Cc1c(C(=O)N2CCC(C)CC2)c(S(=O)(=O)N2CCCCC2)c(C)n1C	-4	0.8
CC1CN(C(=O)NCc2ccnn2C)CC(c2ccsc2)O1 (stereo not given)	8	-1.23
O=C(NCc1cccnc1N1CCOCC1)c1ccsc1	-5	0.53
CC(C)CN(C(=O)Cn1ccc(=O)cc1)C(C)C	1	-0.09
CCOc1ccc(CC(=O)N2C[C@@H]3C[C@H]2C[C@@H]3NC(=O)c2cccs2)cc1	-6	0.84
CN(C)c1cncc(NC(=O)c2cccc(N)c2)c1	14	-1.63
C[C@H]1CN(Cc2c(Cl)cccc2N2CCOCC2)CCN1S(C)(=O)=O	20	-2.31

Structure (SMILES)	% Inhibition [%]	Z score
CN(C(=O)Cc1ccc(F)cc1)[C@H]1CC(=O)N(Cc2ccccc2)C1=O	-6	0.88
CCc1cc(NC(=O)NC(C)(C)CO)ccc1C	-15	1.72
Cc1ccc(N(C)C)cc1NC(=O)N1CCNC(=O)[C@@H]1c1ccc(F)cc1	-8	1.27
CO[C@@H](CN=C(N)N1CCOCC1)c1cccc(Cl)c1	12	-2.2
CC(=O)N[C@H]1C[C@H]2CN(S(=O)(=O)Cc3ccccc3Cl)[C@@H](CC(C)C)C(=O)N2C1	-15	1.3
CC(O)CNC1CCN(C)C(c2ccc(Br)cc2)C1 (stereo not given)	8	-1.61
CC1CC1c1ccc(CNCC2CNc3ccnn3C2)o1 (stereo not given)	-1	0.14
Cc1nn(C)c(Cl)c1S(=O)(=O)N1C[C@H]2CC=CC[C@H]2C1	-7	1.43
Cn1c(Cn2cncn2)nnc1C1CCN(C(=O)OCC(C)(C)C)CC1	-6	1
CN1CCN(C(=O)CCc2cccs2)CC1	-4	0.58
O=C(NC1CC2CCC1O2)c1cc(C2CC2)nc2ccccc12 (stereo not given)	4	-0.41
Cc1ccc2sc(C(=O)N3CCCN(C(N)=O)CC3)cc2c1	4	-0.78
COc1ccc2[nH]c(CN3C[C@H](OC(C)C)[C@@H](O)C3)c(C)c2c1	-5	1.01
CN(Cc1cnc2ccc(Br)cn12)C[C@H]1CCOC1	9	-0.9
CCn1c(=S)sc2c(N3CCCCC3)nc(-c3ccccc3)nc21	5	-0.68
Cc1cc(C)cc(C(=O)N2c3ccccc3C[C@H]2c2nc(C3CC3)no2)c1	-8	1
CC(C)N(C)C(=O)N1CCC2(CC1)COCCO2	-5	0.4
CN(Cc1sc2ccccc2c1Cl)S(=O)(=O)N1CCCC1	-11	1.74
O=C(NC1CCCC1)c1ccc(COc2ccc3ccccc3c2)o1	6	-0.79
CC1(C)C[S@+]([O-])CCN1Cc1nc(-c2ccccc2)no1	-3	0.52
CCC1Oc2cc(C(C)NCc3cc(C)on3)ccc2NC1=O (stereo not given)	3	-0.5
O=C(NCc1ccc(O)cc1)[C@H]1CCCN(C2CCN(Cc3cccnc3)CC2)C1	-7	1.01
CC(C)c1nsc(CN2CCC[C@H](n3ccnn3)C2)n1	-10	1.83
O=C(NC1CCCC1)C1CCN(C(=O)c2ccco2)CC1	-12	1.7
CN(CC(=O)N1CCC[C@@H]1CO)S(=O)(=O)c1ccc2c(c1)OCCCO2	-12	1.33
Cc1n[nH]c(C)c1CC(=O)NC(Cc1ccccc1)[C@H]1C[C@H](O)C1 (stereo not given in full)	12	-1.21
Cc1ncsc1C(=O)N1CCC2(CC1)CC(=O)N(C[C@H]1CCCO1)C2	-3	0.45
